Substitutions are numbered along the chain they refer to. No constants are given. Whether binding was seen depends on the method and setting. For some assays here: Binding seen in cells or lysates may run through a third protein. Some binding calls cover weakened binding; strength is not graded here. For some assays here: Where a sequence is shown, tags or fusion partners need not be part of it. Each block holds one molecule with its values, some of them ahead of it.
How the values were obtained:
[1] = biological target: T1, MBP-tagged Dm Roquin NBM alone (Drosophila melanogaster) (UniProt Q9VV48); assay: pull-down; in vitro MBP pulldown: purified MBP-tagged Roquin fragments (40 μg) with equimolar purified CCR4-NOT proteins or subcomplexes on amylose resin; 50 mM HEPES-NaOH pH 7.5, 200 mM NaCl, 2 mM DTT; 1 h; maltose elution, SDS-PAGE, Coomassie; both purified
T1 sequence: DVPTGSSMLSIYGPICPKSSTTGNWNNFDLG

Amino acid sequences for entries named in this document (tags omitted). A change or cut given only in a name is not applied to a line headed by its entry. Residues count along the entry.
UniProt A5YKK6, residues 1093-2371: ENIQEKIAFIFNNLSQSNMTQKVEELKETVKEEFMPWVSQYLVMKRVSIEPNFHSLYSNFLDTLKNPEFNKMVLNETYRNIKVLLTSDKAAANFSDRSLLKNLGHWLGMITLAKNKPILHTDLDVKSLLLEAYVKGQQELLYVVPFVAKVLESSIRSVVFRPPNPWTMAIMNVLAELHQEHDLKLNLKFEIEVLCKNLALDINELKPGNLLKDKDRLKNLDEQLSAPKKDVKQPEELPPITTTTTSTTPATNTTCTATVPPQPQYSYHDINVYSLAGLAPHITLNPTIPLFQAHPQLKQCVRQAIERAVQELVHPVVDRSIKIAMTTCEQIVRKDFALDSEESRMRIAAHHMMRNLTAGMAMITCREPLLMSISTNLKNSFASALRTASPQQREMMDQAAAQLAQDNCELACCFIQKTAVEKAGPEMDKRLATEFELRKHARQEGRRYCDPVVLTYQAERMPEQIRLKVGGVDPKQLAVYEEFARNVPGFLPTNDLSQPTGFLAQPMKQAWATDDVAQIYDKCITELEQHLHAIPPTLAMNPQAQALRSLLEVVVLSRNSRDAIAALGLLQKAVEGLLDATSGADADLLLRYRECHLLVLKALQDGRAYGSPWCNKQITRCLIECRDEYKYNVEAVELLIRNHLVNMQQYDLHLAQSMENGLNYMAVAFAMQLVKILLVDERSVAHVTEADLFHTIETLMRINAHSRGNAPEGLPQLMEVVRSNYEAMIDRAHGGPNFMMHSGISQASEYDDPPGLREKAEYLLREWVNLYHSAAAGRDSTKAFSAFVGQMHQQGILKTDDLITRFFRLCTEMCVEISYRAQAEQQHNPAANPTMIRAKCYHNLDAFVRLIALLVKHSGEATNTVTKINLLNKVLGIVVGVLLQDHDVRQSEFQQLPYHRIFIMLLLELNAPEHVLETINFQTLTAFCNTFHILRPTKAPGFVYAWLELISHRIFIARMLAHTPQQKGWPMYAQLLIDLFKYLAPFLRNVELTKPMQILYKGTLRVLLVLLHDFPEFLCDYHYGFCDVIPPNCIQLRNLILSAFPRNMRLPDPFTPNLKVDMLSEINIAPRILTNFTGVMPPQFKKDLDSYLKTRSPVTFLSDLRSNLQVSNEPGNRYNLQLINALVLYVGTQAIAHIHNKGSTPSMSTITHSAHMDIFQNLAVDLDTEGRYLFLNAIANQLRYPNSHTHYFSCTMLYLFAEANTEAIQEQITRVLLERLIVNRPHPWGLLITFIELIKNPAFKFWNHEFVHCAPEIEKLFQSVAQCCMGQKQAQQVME
UniProt Q92600: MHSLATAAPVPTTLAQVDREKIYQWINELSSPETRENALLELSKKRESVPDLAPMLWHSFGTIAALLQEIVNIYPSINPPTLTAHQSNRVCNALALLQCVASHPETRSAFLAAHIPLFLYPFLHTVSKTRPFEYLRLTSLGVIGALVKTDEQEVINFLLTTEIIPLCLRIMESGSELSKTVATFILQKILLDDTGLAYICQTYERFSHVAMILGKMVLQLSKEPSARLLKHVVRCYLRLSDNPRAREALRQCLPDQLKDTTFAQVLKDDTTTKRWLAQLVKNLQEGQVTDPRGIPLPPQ

[2] = biological target: T2, V5-SBP-tagged Dm Roquin (full-length) (Drosophila melanogaster) (UniProt Q9VV48); assay: pull-down; SBP pulldown from lysates of HEK293T cells expressing V5-SBP-tagged Dm Roquin (bait) together with CAF40-HA-MBP and CN9BD-HA; HA-tagged proteins detected by western blotting
T2 sequence: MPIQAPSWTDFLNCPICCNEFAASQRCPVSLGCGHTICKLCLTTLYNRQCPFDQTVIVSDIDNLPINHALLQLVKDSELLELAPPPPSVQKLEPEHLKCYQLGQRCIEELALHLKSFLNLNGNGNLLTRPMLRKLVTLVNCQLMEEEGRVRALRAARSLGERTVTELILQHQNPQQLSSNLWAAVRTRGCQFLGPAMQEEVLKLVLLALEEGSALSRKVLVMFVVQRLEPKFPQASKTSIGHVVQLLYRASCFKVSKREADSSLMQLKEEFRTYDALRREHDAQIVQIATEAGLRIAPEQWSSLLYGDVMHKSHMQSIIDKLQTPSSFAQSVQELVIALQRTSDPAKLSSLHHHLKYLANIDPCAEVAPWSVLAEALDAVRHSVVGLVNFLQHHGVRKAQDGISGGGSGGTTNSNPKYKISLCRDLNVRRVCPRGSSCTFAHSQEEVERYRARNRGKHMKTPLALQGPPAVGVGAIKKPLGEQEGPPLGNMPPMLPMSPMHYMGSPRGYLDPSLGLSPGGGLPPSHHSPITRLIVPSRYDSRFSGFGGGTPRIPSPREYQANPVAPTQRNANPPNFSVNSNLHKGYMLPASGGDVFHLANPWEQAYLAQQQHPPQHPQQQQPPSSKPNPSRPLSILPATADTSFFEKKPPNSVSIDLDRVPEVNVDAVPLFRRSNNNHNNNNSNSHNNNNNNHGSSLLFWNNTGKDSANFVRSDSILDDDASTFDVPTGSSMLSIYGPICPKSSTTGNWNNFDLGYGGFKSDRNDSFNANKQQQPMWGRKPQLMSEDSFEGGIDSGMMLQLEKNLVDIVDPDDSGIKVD

[3] = biological target: T3, V5-SBP-tagged Dm Roquin M4 mutant (Drosophila melanogaster) (UniProt Q9VV48); assay: as above
T3 sequence: T2 sequence with I793E, L801E, L805E, V809E

[4] = biological target: T4, V5-SBP-tagged Dm Roquin ΔCBM (Drosophila melanogaster) (UniProt Q9VV48); assay: as above
T4 sequence: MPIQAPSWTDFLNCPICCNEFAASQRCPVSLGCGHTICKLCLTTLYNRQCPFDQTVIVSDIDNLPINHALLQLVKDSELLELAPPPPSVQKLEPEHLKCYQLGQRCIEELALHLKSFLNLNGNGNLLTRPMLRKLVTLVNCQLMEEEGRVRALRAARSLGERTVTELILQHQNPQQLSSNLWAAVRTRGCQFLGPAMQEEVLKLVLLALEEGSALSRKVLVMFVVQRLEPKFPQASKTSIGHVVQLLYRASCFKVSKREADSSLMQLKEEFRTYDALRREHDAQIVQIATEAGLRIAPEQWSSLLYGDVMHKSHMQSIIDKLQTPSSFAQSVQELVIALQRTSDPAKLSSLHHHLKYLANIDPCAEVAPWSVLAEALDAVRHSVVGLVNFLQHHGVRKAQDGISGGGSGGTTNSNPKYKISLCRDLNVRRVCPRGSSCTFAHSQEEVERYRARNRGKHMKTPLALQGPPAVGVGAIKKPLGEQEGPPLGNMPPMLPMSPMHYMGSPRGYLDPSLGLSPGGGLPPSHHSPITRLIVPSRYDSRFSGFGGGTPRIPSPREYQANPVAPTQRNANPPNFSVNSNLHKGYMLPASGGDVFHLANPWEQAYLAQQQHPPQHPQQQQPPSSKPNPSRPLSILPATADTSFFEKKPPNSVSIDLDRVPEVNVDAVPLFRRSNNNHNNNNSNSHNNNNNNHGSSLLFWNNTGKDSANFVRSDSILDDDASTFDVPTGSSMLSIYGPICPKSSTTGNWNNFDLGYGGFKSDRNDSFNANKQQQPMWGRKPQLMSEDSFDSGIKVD

[5] = biological target: MBP-NOT1 (residues 1093–2371) (human) (UniProt A5YKK6); assay: co-purification of co-expressed proteins; five human proteins co-expressed in E. coli; amylose resin, tag cleavage, HiTrap Heparin, Superdex 200 size exclusion
[6] = biological target: T5, MBP-tagged Dm Roq-CC mutant M2 (Drosophila melanogaster) (UniProt Q9VV48); assay: pull-down; in vitro MBP pulldown: purified MBP-tagged Roquin fragments (40 μg) with equimolar purified CCR4-NOT proteins or subcomplexes on amylose resin; 50 mM HEPES-NaOH pH 7.5, 200 mM NaCl, 2 mM DTT; 1 h; maltose elution, SDS-PAGE, Coomassie; both purified
T5 sequence: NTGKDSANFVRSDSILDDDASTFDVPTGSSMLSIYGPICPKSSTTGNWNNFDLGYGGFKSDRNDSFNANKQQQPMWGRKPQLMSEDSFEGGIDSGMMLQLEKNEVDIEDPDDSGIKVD

[7] = biological target: T6, MBP-tagged Dm Roq-CC mutant M4 (Drosophila melanogaster) (UniProt Q9VV48); assay: as above
T6 sequence: T5 sequence with I92E, L100E

[8] = biological target: T7, MBP-tagged Dm Roq-CC-ΔCBM (Drosophila melanogaster) (UniProt Q9VV48); assay: as above
T7 sequence: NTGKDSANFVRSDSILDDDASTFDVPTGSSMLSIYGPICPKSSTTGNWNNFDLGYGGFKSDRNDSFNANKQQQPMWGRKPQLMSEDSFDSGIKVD

[9] = biological target: T8, GFP-tagged Dm Roquin (full-length, wild-type) (Drosophila melanogaster) (UniProt Q9VV48); assay: co-IP; GFP-tagged Dm Roquin and HA-tagged deadenylase or decapping factors co-expressed in Dm S2 cells; lysates treated with RNase A; anti-GFP and anti-HA blots
T8 sequence: T2 sequence

[10] = biological target: T9, GFP-tagged Dm Roquin ΔCBM (Drosophila melanogaster) (UniProt Q9VV48); assay: as above
T9 sequence: T4 sequence

[11] = biological target: T10, GFP-tagged Dm Roquin ΔNBM (Drosophila melanogaster) (UniProt Q9VV48); assay: as above
T10 sequence: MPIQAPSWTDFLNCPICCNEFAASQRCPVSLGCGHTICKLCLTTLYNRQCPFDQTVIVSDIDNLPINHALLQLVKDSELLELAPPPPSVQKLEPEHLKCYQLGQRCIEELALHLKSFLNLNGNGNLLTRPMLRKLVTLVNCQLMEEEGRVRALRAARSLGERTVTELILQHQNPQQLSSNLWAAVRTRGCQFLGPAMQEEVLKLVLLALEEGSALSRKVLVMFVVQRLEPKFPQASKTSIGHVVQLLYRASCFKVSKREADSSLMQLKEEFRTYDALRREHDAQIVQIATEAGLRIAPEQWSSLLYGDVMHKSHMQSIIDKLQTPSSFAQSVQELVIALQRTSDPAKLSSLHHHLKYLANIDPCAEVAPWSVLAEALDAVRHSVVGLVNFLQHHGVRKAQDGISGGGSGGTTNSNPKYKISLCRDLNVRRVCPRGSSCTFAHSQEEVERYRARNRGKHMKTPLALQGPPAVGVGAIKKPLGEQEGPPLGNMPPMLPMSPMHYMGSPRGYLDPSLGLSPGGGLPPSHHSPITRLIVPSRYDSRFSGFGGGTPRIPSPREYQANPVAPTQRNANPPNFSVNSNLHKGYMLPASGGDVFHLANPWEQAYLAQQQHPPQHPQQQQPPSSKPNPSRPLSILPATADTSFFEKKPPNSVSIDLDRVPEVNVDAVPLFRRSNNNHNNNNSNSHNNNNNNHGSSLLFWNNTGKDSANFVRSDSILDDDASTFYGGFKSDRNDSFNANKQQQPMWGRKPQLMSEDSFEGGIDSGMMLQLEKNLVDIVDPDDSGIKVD

binding [1]: no binding
Molecule: Hs NOT module (NOT1-SHD, NOT2-C, NOT3-C) (from UniProt A5YKK6 1833-2361; Q9NZN8 350-540; O75175 607-748) (complex)

binding [2]: binds | binding [3]: no binding | binding [4]: no binding
Molecule: CAF40-HA-MBP (expressed in HEK293T) (from UniProt Q92600 1-299)

binding [5]: binds | binding [6]: no binding | binding [7]: no binding | binding [8]: no binding
Molecule: Hs CAF40 ARM domain (residues 19–285) (from UniProt Q92600 19-285) (domain or fragment)

binding [9]: binds | binding [10]: binds | binding [11]: binds
B1: HA-tagged NOT2 (S2 cells) (protein, UniProt Q94547 1-585)
chain: MANLNFQQPPRSIANAALAGRTTGGFGGSSLAGHVTPTSGMFQTDFANSYPGTANYGQAPQQQQQQQQQPQLSPNRNAQLSVGGPAISSGNRNANLFGQRQFVERRAMQGLGSGPMSNMGNFMQTGRGGYGTGGGGGGPLNNFHVFGGGGGSDTSTPALLDPTEFPSLTNARGQNDQTLPQSNPLQPPGSKPYGNFFTSFGMVKQPTSEQSEFTMSNEDFPALPGTQNSDGTTNAVGSVAGTGGSGGASTENHLDGTEKPMNSIVVSGSASGSSGSNVGVVGGNGLGAVGSGIGGLAVGGGGGAGSSGGGGVGGNAASGVVGGSHVGLVGSNSGIGGVNSVPNSNAMMGVGGGLGSGSGSSGSGAGGEHLNDNSSNDKLVKSGVQTSPDGKVTNIPATMVNNQFGMVGLLTFIRAAETDPNLVTLSLGTDLTGLGLNLNSQESLHTTFAGPFVAQPCRAQDVEFNVPPEYLINFAIRDKLTAPVLKKLQEDLLFFLFYTNIGDMMQLMAAAELHSREWRYHVEEKIWITRIPGIDQYEKNGTKERGTFYYFDAQSWKRLSKVFQIDPEKLDKCPNISAFMNGQSV

From paper PMC5303829, “A CAF40-binding motif facilitates recruitment of the CCR4-NOT complex to mRNAs targeted by Drosophila Roquin” (Nature Communications, 2017)
